Experimental data taken from publication PMC12136788.
The other results are listed elsewhere or left out.

T1: UNK ZnF1-3 (human, UniProt Q9C0B0 31-174)
T1 sequence: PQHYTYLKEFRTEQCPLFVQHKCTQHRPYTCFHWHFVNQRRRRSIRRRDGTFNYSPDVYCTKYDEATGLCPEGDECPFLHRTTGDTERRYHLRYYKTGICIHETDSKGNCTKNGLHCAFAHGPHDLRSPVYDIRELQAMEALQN

B1: chr16:13782116:13782117:+_ENSMUSG00000022682_ENSMUST00000023363|mus_hu|FALSE|FALSE (ssRNA)
RNA: GGGAGUUCUACAGUCCGACGAUCGACUUCUGUCACAGUUCCACCAAACCGAACAGUUUUUCUUGGGGGAGAAUUGAAAAAGUCAUUCUCUAAUGCACGCAUAUUUGAAAUCCCAGUCCUCGACGCGCCCAGCUUCUUAACUGCCAACAGAGGAUUGAGCAUCA
B2: chr11:87793471:87793472:-_ENSMUSG00000020483_ENSMUST00000020775|mus_mus|mus_mus_mus_hu_False|8_48 (ssRNA)
RNA: GGGAGUUCUACAGUCCGACGAUCUGGACUUGAAAAUAAAAGAAUAAGCUGGAUCCCCCACCCCCCCACAUUGUCAACCCUACACGAGUUCUGAAUGGGCGACUCAUGAAAAUCAGCAGCUCAAACGAAUGACAACCCCCCACCCAACAGAGGAUUGAGCAUCA
B3: 6498050_6498170_283_3pUTR_ENSMUSG00000033768_ENSMUST00000113458|mouse|control|control (ssRNA)
RNA: GGGAGUUCUACAGUCCGACGAUCGGGUGAAGCGAAGGAAAACCAGAGCCCGAGCCUCAGUCCGGAGCCAAGCAAAUCAACUGGAUCCCGCCGGGGAAUCCGGGGUACGCGCAGCGGGAAGGCCAAGGUCCGUGAAGCCUGGAUCAACAGAGGAUUGAGCAUCA
B4: chr9:114657494:114657495:+_ENSMUSG00000032434_ENSMUST00000035007|mus_mus|motif|central (ssRNA)
RNA: GGGAGUUCUACAGUCCGACGAUCGAUUGUCUCAGGUAUUUUGUUAUAGAAACAGUCAGCAGACUAAUAGUUGGUAACACGGAAGUAGCUCAGAUUUGCUGUUAAUUCUCAAUAGGUCUAAAUGAUAUUUACAGCACAGCUUGACAACAGAGGAUUGAGCAUCA
B5: chr2:18084439:18084440:+_ENSMUSG00000026743_ENSMUST00000114669|mus_hu|motif|central (ssRNA)
RNA: GGGAGUUCUACAGUCCGACGAUCGAGCAAUGUAGGAGAUUUCUGCAGACUAGAGCUUGUUAUGCUUCCUGCAGCUGAUGCGGCAGAUGAUGUUGGUGAAGCAGAAGAAACUGAGAGAUGAGAAACAUUCUCUUGAUUUUUGUUCAACAGAGGAUUGAGCAUCA
B6: chr2:183846084:183846085:-_ENSG00000061676_ENST00000360982|hu_mus|FALSE|FALSE (ssRNA)
RNA: GGGAGUUCUACAGUCCGACGAUCGAGGUAUUGCACGUAGUACCUCUGCAUGACAGGCCCAUACUUCCUGACAUGUGCUCUAAGCUCUUCCAUGUAAAAUAUUAGCUCAGCAAUGUGCUUAUCUAUAAAGUCAUCUGCACUCUUCAACAGAGGAUUGAGCAUCA
B7: chr9:53430067:53430068:-_ENSMUSG00000032030_ENSMUST00000166367|mus_mus|FALSE|FALSE (ssRNA)
RNA: GGGAGUUCUACAGUCCGACGAUCGGGUGAGUUGACUUGAGGGUCAUACAACAAAACUUGCCGUUUGAGCUUGGGAAAAGCUACUAAAGACCAUAAAGUCCUUCUAAGUUCAGCAUCUGGGAGUUCCGUUGCAAGUUUUAGAUUCAACAGAGGAUUGAGCAUCA
B8: chr2:198351390:198351391:-_ENSG00000144381_ENST00000345042|hu_hu|motif|central (ssRNA)
RNA: GGGAGUUCUACAGUCCGACGAUCUUAUUCUCACUCUCCACAGAAAGGCUGCUUAACUUCUCAUCUGGUGGUGGCAAGCACGGAAAUCCUGAUUUUAACAGAAUAGUAGUAAAAAUGCCUCAGUGAUUUAAGUUGAAAGCAGUACAACAGAGGAUUGAGCAUCA
B9: chr12:48362563:48362564:+_ENSG00000134291_ENST00000256686|hu_hu|hu_hu_hu_mus_False|8_108 (ssRNA)
RNA: GGGAGUUCUACAGUCCGACGAUCUCCGAAGGGUGAAUCGAUAGACCCUUGCGGGGGAAACUGUAAUCACUUUGUAUGGGGAAGGAAAAGAAACGCCAAAAACUUUCCAAAAAGCGGGGGUGGGGUGUCCCAGGCCUGGGAGGUCAACAGAGGAUUGAGCAUCA
B10: chr14:103969519:103969520:+_ENSG00000075413_ENST00000216288|hu_hu|motif|central (ssRNA)
RNA: GGGAGUUCUACAGUCCGACGAUCAUCACUGGGUUACAGCUUUAGCUCAUUGGCAAUUUUGGAAGCAAUAUUUUUGAAGGCGGUGGAUGUCCCCGAUAUCCGCUUAAACCGGACCCCGUUCAGAGACAGUCUUGGCAGCUUGCACAACAGAGGAUUGAGCAUCA
B11: chr14:22664367:22664368:+_ENSMUSG00000021771_ENSMUST00000022293|mus_mus|motif|central (ssRNA)
RNA: GGGAGUUCUACAGUCCGACGAUCAGACAGUGUAAGCUUCACACCAGGCCUCAGAGUCUGAGUAUAGCCCACUCCAAUUAAACGGGAGUUGUUGACCUUUGCAGAGAUAGAAGCAGUAGGAUCCAACUGGUAUUUAGCUGCAAUCAACAGAGGAUUGAGCAUCA
B12: chr4:1729744:1729745:+_ENSG00000013810_ENST00000313288|hu_hu|FALSE|FALSE (ssRNA)
RNA: GGGAGUUCUACAGUCCGACGAUCGGACUCUGUCCUGCAAGGGUCUUCUAGGGUCUCAGAGGCGGGUGUCACUCUUCUGUCUAAGGAAUAGGAACUAAGGUUUUCCUCCACGGCUUGCUCAGGGCUGCCAGACACUUUUCCUGGCAACAGAGGAUUGAGCAUCA
B13: chr5:138699528:138699529:+_ENSG00000120727_ENST00000265192|hu_hu|motif|central (ssRNA)
RNA: GGGAGUUCUACAGUCCGACGAUCGUCAUCUUCAUGAGAAUGACCGUUAAUAAUCACAUCUUCAUUGAUGAUGCUUGGGCGGGUACUGCUGCGACUUGGAUCUUUCAUGGCUGAUGUUGGUUGUCGUUUUUAACCCAAUGCACACAACAGAGGAUUGAGCAUCA
B14: chr17:65740002:65740003:+_ENSG00000130935_ENST00000581375|hu_hu|hu_hu_hu_mus_False|38_58 (ssRNA)
RNA: GGGAGUUCUACAGUCCGACGAUCAACAAAUCUUUCUUCCCUGGACGAACAGGAAGAUUCAUAUUAAAAAAAAUAUAUGUCUAUGAAGUUAGGUGUGUAAUAUCAGACUUUACUCCCAGCACUUUGGGAGGUGGAUCUCUGAGUCAACAGAGGAUUGAGCAUCA

These binders were tested against T1, UNK ZnF1-3 (assay: nsRBNS (natural sequence RNA bind-n-seq); RBNS binding buffer (assumed for nsRBNS): 25 mM Tris pH 7.5, 150 mM KCl, 3 mM MgCl2, 0.01% Triton X-100, 500 ug/ml BSA, 20 U/ml SUPERase-In, 4 C; UNK is unkempt and MSI1 is Musashi-1; names of the RNAs are library labels; protein concentration not given here; high values mean tight binding).
B1 showed a binding signal of 0.74 enrichment R.
In the case of B2, the binding signal is reported as 2.34 enrichment R.
With B3 the binding signal was 1.35 enrichment R.
B4 gave a binding signal of 1.09 enrichment R.
B5 showed a binding signal of 1.17 enrichment R.
With B6 the binding signal was 0.799 enrichment R.
Work on B7 yielded a binding signal of 1.28 enrichment R.
Binder B8 has a binding signal of 1.56 enrichment R.
With B9 the binding signal was 2.55 enrichment R.
In the case of B10, the binding signal is reported as 1 enrichment R.
With B11 the binding signal was 1.36 enrichment R.
Work on B12 yielded a binding signal of 0.831 enrichment R.
B13 gave a binding signal of 0.599 enrichment R.
In the case of B14, the binding signal is reported as 1.72 enrichment R.
